# Laboratory results taken from PubChem BioAssay AID1508624 (National Center for Advancing Translational Sciences (NCATS), 2021).
# Out of some 48,000 compounds screened, about 120 (0.25%) were called active. Another 4% or so got no clear call; they are omitted. The call rests on the fitted dose curve; in most records, active means well fitted activation curve with a large enough effect; inconclusive means small, poorly fitted or top-dose-only effect, or another doubt; inactive means no such curve, though single readings can be large or run the other way. The list shows a part of the results.
# Assay: Primary qHTS for Identification of Small Molecule Activators of Huntingtin-Antisense Promoter Activity; further: nearly all actives have a fitted effect of over 55% in size
# Details: HEK293 HTT-AS promoter firefly luciferase reporter, 24 h; series mostly up to 57.5 µM; activity change, positive = activation: at the top concentration
# Summary of the method: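 HEK293 Fluc reporter, 2,500 cells/well, 24 h pre-culture; cpds up to 57.5 uM final, 24 h 37 degrees C; Dual-Glo, 10 min RT; normalized vehicle = 0%, zero RLU = -100%.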
row,SMILES,"activity change, positive = activation"
1,COc1ccc2c(c1)CC(NC(=O)Nc1c(C)cc(C)cc1C)CO2 (stereo not given),inactive: -0.807%
2,Cc1ccc(OC(=O)c2cc(-c3ccc4c(c3)OCCO4)on2)cc1C,inactive: 10.5%
3,CCOc1cccc2cc(-c3nc4ccc(C(=O)O)cc4[nH]3)c(=O)oc12,inactive: -51.1%
4,CCOc1ccc(NC(=O)CSc2nnc3scc(-c4ccc(Cl)cc4)n23)cc1,inactive: 12.4%
5,COc1ccc(C)cc1S(=O)(=O)N1CCN(c2cccc(Cl)c2)CC1,inactive: -31.4%
6,Cc1cccc(-n2c3nc(=O)[nH]c(=O)c-3cc3c(Cl)cccc32)c1C,inactive: -42.5%
7,Cc1cccc(NC(=O)CSc2nc(-c3ccccc3)cn2-c2ccccc2)c1C,inactive: -10.5%
8,Cc1ccc(C)c(-n2c(CCC(=O)O)ccc2-c2ccc(Cl)cc2)c1,inactive: -13.3%
9,COc1ccc(Nc2ncc(C(=O)N3CCN(c4cccc(Cl)c4)CC3)c3ccccc23)cc1,inactive: -38%
10,COCCn1ccc2c(OCC(=O)Nc3cccc(OC)c3)cccc2c1=O,inactive: -18.9%
11,Cc1nc(C)c(-c2ccc(SCC(=O)Nc3ccc(C)c(F)c3)nn2)s1,inactive: -22%
12,CCc1ccc2ncc3c(-c4ccc(F)cc4)nn(CC(=O)NCc4ccccc4)c3c2c1,inactive: 2.38%
13,CC(C)CC(C(=O)NCc1ccc(F)cc1)N1Cc2ccccc2C1=O (stereo not given),inactive: -7.12%
14,Cc1ccc(C(C)C)c(OCC(=O)Nc2ccc(C(=O)OC3CCCCC3)cc2)c1,inactive: -9.03%
15,CCOc1ccc(-c2nc(SCC(=O)Nc3ccc(C)c(C)c3)n3[nH]c(=O)cc3n2)cc1,inactive: -18.5%
16,CCc1nnc(SCc2nc(-c3ccc(OC)c(OC)c3)oc2C)c2cc3sc(C)cc3n12,inactive: -9.11%
17,Cc1ccc(/C=C/c2onc(C)c2S(=O)(=O)N2CCC(C(=O)NCc3ccc(C)o3)CC2)cc1,inactive: -14.9%
18,COc1cccc(CNC(=O)Cc2ccc(NC(=O)N3CCCCc4ccccc43)cc2)c1OC,inactive: -18%
19,COc1cc(NC(=O)CCc2nc(-c3cccs3)no2)cc(OC)c1OC,inactive: -24.4%
20,Cc1ccc2c(=O)cc(C(=O)Nc3cccc(Cl)c3C)oc2c1C,"inactive: 8.75% [at 11.5 µM, percent change from vehicle, -100% = no light]"
21,COc1ccc(OCCCCn2c(-c3ccc(Cl)cc3)nc3ccccc3c2=O)cc1,inactive: -1.91%
22,CCCCCOC(=O)CSc1ncnc2c1sc1nc(N3CCOCC3)c3c(c12)CCCC3,inactive: -5.85%
23,CCC(=O)N1CCN(c2ccc(-n3c(=O)ccc4cnc5ccc(-c6cnc7ccccc7c6)cc5c43)cc2C(F)(F)F)CC1,inactive: -17.7%
24,Cc1cc(Nc2cccc(C)c2C)n2cnnc2n1,inactive: -10.1%

row,SMILES,"activity change, positive = activation"
1,Cc1ccc(C(=O)CC2(O)C(=O)N(CCc3ccccc3)c3ccc(Cl)cc32)cc1 (stereo not given),inactive: -42.9%
2,Cn1c(=O)c2c(-c3ccccc3Cl)n(-c3cc(Cl)ccc3O)cc2n(C)c1=O,inactive: -21.4%
3,CCC(=O)N1c2nc(-c3ccco3)nn2C2(CCCCC2)[C@@H]2CCCC[C@@H]21,inactive: -15.2%
4,CCS(=O)(=O)N1CCc2cc(C(=O)Nc3cccc(Cl)c3C)ccc21,inactive: 23.8%
5,CCOc1c(Cl)cc(Cl)cc1CNCCSc1nnnn1C,inactive: -12.6%
6,COc1ccc(N2CCN(C(CNC(=O)C(=O)NCCCN(C)C)c3cccnc3)CC2)cc1 (stereo not given),inactive: -2.27%
7,O=C(Nc1cc2c(cc1C(=O)c1ccccc1Cl)OCCO2)c1ccc(Br)cc1,inactive: -15.5%
8,Cc1nc2c(-c3ccccc3)c(C)nn2c(C)c1CCC(=O)NCc1ccccc1Cl,inactive: -8.46%
9,Cn1cnc(-c2cc3nccc(Oc4ccc(NC(=S)NC(=O)Cc5ccccc5)cc4F)c3s2)c1,inactive: -21%
10,Cc1ccc(CSCc2ccc(C(=O)NCCc3ccc(Cl)cc3)o2)cc1,inactive: -35%
11,Cc1cc(C)cc(N2C(=O)CSC23C(=O)N(CC(=O)NCCc2ccccc2)c2ccccc23)c1 (stereo not given),inactive: -26%
12,CC(C)Oc1ccc(CNC(=O)CN2C(=O)CCc3cc(S(=O)(=O)N4CCCCC4)ccc32)cc1,inactive: -20%
13,O=c1[nH]c(=O)c2[nH]c(=O)[nH]c2[nH]1,"inactive: -11.4% [at 11.5 µM, percent change from vehicle, -100% = no light]"
14,CCOC(=O)C1=C(CS(=O)(=O)c2ccc(C)cc2)NC(=O)NC1c1ccc(C(C)C)cc1 (stereo not given),inactive: -53.5%
15,CN(C(=O)c1ccc2c(c1)N(Cc1cccc(Cl)c1)C(=O)c1ccccc1S2=O)C1CCCCC1 (stereo not given),inactive: -32.3%
16,COc1ccc(NC(=O)CCS(=O)(=O)c2cccc3nonc23)cc1Cl,inactive: -22.5%
17,COc1ccccc1NCc1cccn1-c1nnc(N2CCOCC2)s1,inactive: 4.69%
18,Cc1oc2ncn(C)c(=O)c2c1C(=O)NC(C)c1ccccc1 (stereo not given),inactive: -18.7%
19,O=C(CSC1=Nc2ccccc2N=C(c2ccc(F)cc2)C1)NCc1ccc(F)cc1,inactive: -25.5%
20,Cc1ccc(C)c(CN2C(=O)CSc3ccc(C(=O)NCc4ccc(F)cc4)cc32)c1,inactive: -6%
21,CCCNc1ncnc2onc(C)c12,inactive: -20.7%
22,Cc1ccc(C(=O)n2nc(C)c(S(=O)(=O)N3CCOCC3)c2C)cc1,inactive: -16.5%
23,CC(C)c1cnc2c(c1SCC(=O)Nc1ccccc1C(F)(F)F)c(=O)n(C)c(=O)n2C,inactive: -8.66%
24,COc1ccc(-n2nc(C(=O)Nc3ccccc3OC)c3c4ccccc4n(C)c3c2=O)cc1Cl,inactive: -12.3%

row,SMILES,"activity change, positive = activation"
1,Cc1ccc(CSc2nc(-c3cccs3)ccc2C#N)cc1,inactive: -15.3%
2,COc1cccc(-c2nn(C)c3sc(C(=O)NCCc4ccc(Cl)cc4)cc23)c1,inactive: -13.5%
3,Cc1nnc(SCc2ccc(Cl)cc2)c2cc3occc3n12,inactive: -9.76%
4,Cc1cccc(N2CCN(c3cc(C)nc4c(-c5ccc(Cl)cc5)c(C)nn34)CC2C)c1 (stereo not given),inactive: -7.88%
5,Cc1ccc(-n2nnnc2CNC(=O)c2ccccc2S(C)(=O)=O)cc1C,inactive: -6.01%
6,Nc1nc(OCc2ccccc2)c2[nH]cnc2n1,inactive: 1.48%
7,FC(F)(F)c1cc(-c2ccccc2)nc2cc(-c3ccc(Br)cc3)nn12,inactive: -1.83%
8,COc1ccc(-c2cn3nc(N4CCCC(C(=O)Nc5ccc(C)c(C)c5)C4)sc3n2)cc1 (stereo not given),inactive: -6.81%
9,O=C(CCC(=O)OCC(=O)c1ccc(Cl)cc1)Nc1ccc(Oc2ccccc2)cc1,inactive: -8.31%
10,CCCn1cc(S(=O)(=O)c2cc(C)ccc2C)c(=O)c2cc(F)c(N3CCOCC3)cc21,inactive: -14.6%
11,CCc1ccc2occ(CC(=O)Nc3c(C(=O)Nc4ccc(C)cc4)oc4ccccc34)c2c1,inactive: 1.57%
12,COC(=O)c1c(SCC(=O)Nc2cc(C)cc(C)c2)[nH]c2ccccc2c1=O,inactive: -25.7%
13,COc1cccc(C2c3c(oc4ccc(C)cc4c3=O)C(=O)N2CCCN2CCOCC2)c1OC (stereo not given),inactive: -19.7%
14,O=C(Nc1cccc(NC(=O)c2ccc(Br)o2)c1)c1ccccc1,inactive: 7.17%
15,CC1=C(CC(=O)O)c2cc(F)ccc2/C1=C\c1ccc(S(C)=O)cc1 (stereo not given),inactive: -4.08%
16,Cc1ccccc1-n1cc(-c2ccccc2)nc1SCC(=O)Nc1ccc(F)cc1,inactive: -20.5%
17,COc1ccc(-n2c(=O)c3c4c(sc3n(Cc3cc(C)ccc3C)c2=O)CN(C(C)=O)CC4)c(OC)c1,inactive: -46.7%
18,CCCn1c2ccccc2c2cnn(CC(=O)N3CCC(C(=O)OCC)CC3)c(=O)c21,inactive: -9.88%
19,Cc1ccc(CNc2nc3ccccc3n3c(C)nnc23)cc1,inactive: -11.3%
20,Cc1ccc(Sc2c(C)nn(C(=O)COc3ccc(F)cc3)c2C)cc1,inactive: 4.81%
21,Cc1onc(-c2ccccc2)c1-c1ccc(S(N)(=O)=O)cc1,inactive: -13.5%
22,O=C(NCCN1CCN(c2ccccc2)CC1)Nc1ccccc1Br,inactive: -8.12%
23,Cc1noc(Cn2c(=O)c3ccccc3n(CC(=O)Nc3cccc(Cl)c3C)c2=O)n1,inactive: -13.2%
24,COc1ccc(CCN(C)CCCC(C#N)(c2ccc(OC)c(OC)c2)C(C)C)cc1OC (stereo not given),inactive

row,SMILES,"activity change, positive = activation"
1,CC(=O)N1CCCc2cc(S(=O)(=O)N(C)CC(=O)Nc3ccc(C)cc3C)ccc21,inactive: 29.1%
2,CC[N+]1(CC)CCC(=C(c2ccccc2)c2ccccc2)C1C (stereo not given),inactive: -7.3%
3,N#Cc1nc(/C=C/c2ccc(F)cc2)oc1N1CCN(c2ccccc2)CC1,inactive: -8.87%
4,COc1ccc(Cn2c(CNS(=O)(=O)c3ccc4c(c3)CCCC4)nc3cccnc32)cc1,inactive: -20.7%
5,O=C(c1cnc(N2CCCCC2)c2ccccc12)N1CCN(c2ccccc2F)CC1,inactive: -24.9%
6,CCCSc1oc(-c2cccs2)nc1S(=O)(=O)c1ccc(Cl)cc1,inactive: -12.3%
7,Cc1ccc2c(c1)c1c(c(=O)n(Cc3ccccc3)c(=O)n1Cc1cccc(C(F)(F)F)c1)n2C,inactive: -11.7%
8,c1csc(C2=NC(c3ccncc3)=Nc3ccccc3N2)c1,inactive: -11.8%
9,O=C(CSC1=Nc2ccccc2N=C(c2ccc(F)cc2)C1)NCc1ccccc1,inactive: -27.7%
10,CC(=O)N1CCc2cc(CNS(=O)(=O)c3ccc(Br)s3)ccc21,inactive: -4.72%
11,CCOc1ccc(C(=O)NCCc2sc3nc(-c4ccc(Cl)cc4)nn3c2C)cc1OCC,inactive: -15.3%
12,CC1CCCN(Cc2cn3c(-c4cccc(Br)c4)nnc3s2)C1 (stereo not given),inactive: -9.37%
13,O=C(NCCc1ccc(Cl)cc1)c1ccc(Cn2c(=O)c3cccn3c3cccnc32)cc1,inactive: -24.9%
14,CCCc1cc(=O)[nH]c(=S)[nH]1,inactive
15,Cc1ccc(N2CC(NC(=O)c3ccc(S(=O)(=O)N4CCOCC4)cc3)CC2=O)cc1C (stereo not given),inactive: -15.4%
16,Cc1cccc(CNC(=O)C2CCN(c3nnc(-n4c(C)ccc4C)s3)CC2)c1,inactive: -1.43%
17,Cc1cccc(-c2noc(CN(C(=O)c3ccccc3Cl)C(C)C)n2)c1,inactive: -20.4%
18,COc1ccc(CCNC(=O)CCCn2c(=O)c3ccccc3n(Cc3ccc(F)cc3Cl)c2=O)cc1OC,inactive: -5.37%
19,COc1ccccc1NC(=O)c1c(NCc2ccc(C)o2)sc2c1CCC(C)C2 (stereo not given),inactive: -19.2%
20,COCCc1nn2c(=O)cc(COC(=O)COc3ccc(F)cc3)nc2s1,inactive: -10.4%
21,COc1ccc(-c2cn3c(n2)sc2cc(C(=O)NCCCN4CCCCCC4)ccc23)cc1,inactive: -3.19%
22,CCCOC(=O)c1c(NC(=O)C2c3ccccc3Oc3ccccc32)sc2c1CCC(C)C2 (stereo not given),"inactive: -13.2% [at 11.5 µM, percent change from vehicle, -100% = no light]"
23,CC(C(=O)Nc1cc(C(F)(F)F)ccc1Cl)n1nnc2sc3c(c2c1=O)CCCC3 (stereo not given),inactive: -27%
